The source of these data is publication PMC4336329 (PLoS ONE, 2015).

The structures appear in SMILES notation. Screen size: about 310,000 compounds; about 2,200 (0.71%) showed an effect of 50% or more. The effect is printed as a negative number. The list shows a part of the results.

For the test, the target named is human ether-à-go-go-related gene (hERG) potassium channel (human, UniProt Q12809). Description: primary screen, population patch clamp on CHO cells stably expressing hERG.
Chain of human ether-à-go-go-related gene (hERG) potassium channel (Q12809 whole entry, looked up): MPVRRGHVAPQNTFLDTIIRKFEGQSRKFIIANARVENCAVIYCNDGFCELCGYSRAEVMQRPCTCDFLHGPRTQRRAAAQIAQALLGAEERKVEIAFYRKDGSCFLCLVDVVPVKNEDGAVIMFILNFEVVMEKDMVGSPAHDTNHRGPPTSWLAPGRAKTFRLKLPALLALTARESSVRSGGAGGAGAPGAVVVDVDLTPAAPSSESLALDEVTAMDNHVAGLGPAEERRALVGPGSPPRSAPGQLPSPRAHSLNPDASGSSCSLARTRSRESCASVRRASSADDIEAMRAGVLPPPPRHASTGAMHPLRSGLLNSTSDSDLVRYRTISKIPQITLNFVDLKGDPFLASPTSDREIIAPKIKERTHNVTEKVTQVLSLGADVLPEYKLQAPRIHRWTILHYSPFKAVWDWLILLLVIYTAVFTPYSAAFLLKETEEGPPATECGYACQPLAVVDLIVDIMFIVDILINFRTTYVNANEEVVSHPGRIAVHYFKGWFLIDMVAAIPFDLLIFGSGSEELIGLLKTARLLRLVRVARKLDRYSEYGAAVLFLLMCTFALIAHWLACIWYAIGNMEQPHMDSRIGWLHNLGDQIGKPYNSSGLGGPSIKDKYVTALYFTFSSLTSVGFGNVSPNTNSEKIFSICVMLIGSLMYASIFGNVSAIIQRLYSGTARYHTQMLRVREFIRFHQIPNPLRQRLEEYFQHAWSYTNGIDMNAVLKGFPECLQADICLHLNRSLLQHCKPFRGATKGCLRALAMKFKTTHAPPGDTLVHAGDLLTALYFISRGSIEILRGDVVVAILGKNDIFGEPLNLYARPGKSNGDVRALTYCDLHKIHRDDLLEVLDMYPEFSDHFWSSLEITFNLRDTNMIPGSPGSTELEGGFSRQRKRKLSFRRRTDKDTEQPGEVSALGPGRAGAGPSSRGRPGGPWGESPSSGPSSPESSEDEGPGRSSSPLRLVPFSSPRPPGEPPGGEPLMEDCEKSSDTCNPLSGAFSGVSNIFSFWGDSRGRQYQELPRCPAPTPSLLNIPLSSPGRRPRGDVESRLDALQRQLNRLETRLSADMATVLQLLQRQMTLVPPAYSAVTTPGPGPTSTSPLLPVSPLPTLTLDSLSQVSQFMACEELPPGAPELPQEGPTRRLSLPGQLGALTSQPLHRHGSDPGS
Regarding `COc1ccc(N2CCN(C(=O)CC34CC5CC(CC(C5)C3)C4)CC2)c([N+](=O)[O-])c1`, the “hERG current change (%, negative = inhibition) at 1uM” value is listed as 10.3%. To `Cn1c(=O)c2sccc2n2c(CCCC(=O)Nc3ccccc3)nnc12` belongs 11.7%; to `O=C(CCN=C1NS(=O)(=O)c2ccccc21)OCc1nnc(-c2ccccc2)o1`, 18.4%; to `CCOC(=O)C1=C(COC(=O)CNC(=O)c2cccc(C)c2)NC(=O)NC1C` (centres unmarked), 6.58%. Regarding `C=CCOc1ccc(Br)cc1CNC(C)(C)C.Cl`, the “hERG current change (%, negative = inhibition) at 1uM” value is on record as 6.36%. To `Cc1ccc(C)c(NC(=O)CN(C)C(=O)/C=C/c2ccco2)c1` belongs 12.2%; to `S=C(c1cccs1)N1CCCC1`, 13.8%. For `CCCCc1n(CC(=O)c2ccc(Cl)cc2)c2ccccc2[n+]1C.[Br-]` the value was 10.7%; for `C=CCn1c(-c2csc3ccccc23)n[nH]c1=S`, 14.6%; for `COc1cc(C)nc(NCc2ccccc2)n1`, 15.8%. To `COc1ccccc1N1CCN(S(=O)(=O)c2c(C(=O)N3CCOCC3)c(C)n(C)c2C)CC1` belongs 14.6%; to `COc1ccc(C)cc1S(=O)(=O)N(C)CC(=O)Nc1ccc2c(c1)OCCO2`, 5.96%; to `Clc1ccc(C2N3CCCN23)c(Cl)c1` (centres unmarked), 18%.

Regarding `C(=N\Nc1nc(N2CCOCC2)nc(N2CCOCC2)n1)/c1cccnc1`, the “hERG current change (%, negative = inhibition) at 1uM” value is recorded as -0.665%. To `COc1ccc(N(CC(=O)Nc2ccc(S(=O)(=O)N3CCCC3)cc2)S(C)(=O)=O)cc1OC` belongs 5.38%.

Take `CC1CC(C)(C)Nc2ccc(OC(=O)c3ccco3)cc21` (centres unmarked): the “hERG current change (%, negative = inhibition) at 1uM” value was determined as 14.7%.

As to `CC(C)(C)OC(=O)NNC(=O)NC12CC3CC(CC(C3)C1)C2`, the “hERG current change (%, negative = inhibition) at 1uM” value is 4.29%. To `Cc1cccc(N=Cc2cc3c(cc2[N+](=O)[O-])OCO3)c1` belongs 9.6%. With `O=S(=O)(c1ccccc1)c1cc(O)ccc1O`, the “hERG current change (%, negative = inhibition) at 1uM” value was 9.5%. For `O=C1COc2ccc(S(=O)(=O)CCC(=O)N3CCN(c4cccc(Cl)c4)CC3)cc2N1` the value was 8.02%; for `O=C(NCCN1CCN(c2cccc(Cl)c2)CC1)Nc1ccccc1`, -1.13%.

With `O=C(CNC(=O)c1ccccc1)NCCc1ccc(O)c(O)c1`, the “hERG current change (%, negative = inhibition) at 1uM” value is 9.02%.

`NC(=O)NC(=O)CN1C(=O)NC(c2ccccc2)(c2ccccc2)C1=O`: the “hERG current change (%, negative = inhibition) at 1uM” value is on record as 22.1%.

As for `O=C(CCCCn1c(=O)[nH]c2ccsc2c1=O)NCC1CCCO1` (centres unmarked), the “hERG current change (%, negative = inhibition) at 1uM” value is 11.6%. For `CS(=O)(=O)N(CC(=O)N1CCN(Cc2ccccc2)CC1)c1ccc(F)cc1` the value was 6.89%; for `Cc1ccc2[nH]c(=O)c3cc(C(=O)N(C)c4ccccc4C)sc3c2c1`, 9.58%.

For `O=C(Cn1cnc2ccccc2c1=O)NCCC(=O)Nc1ccccc1C(F)(F)F`, the “hERG current change (%, negative = inhibition) at 1uM” value turned out to be 15.9%.

As for `CC(C)Cn1c(Br)nc2c1c(=O)n(CCC#N)c(=O)n2C`, the “hERG current change (%, negative = inhibition) at 1uM” value is -15.9%. For `CCc1ccc(CN2C(=O)c3ccccc3C2C(=O)NCC2CCCO2)cc1` (centres unmarked) the value was 8.44%; for `O=C1/C(=C\c2ccccc2)C2OCC=C3CN4CCC56c7ccccc7N1C5C2C3CC46` (centres unmarked), -6.15%; for `COc1ccc(NC(=O)NNC(=O)c2ccccc2-n2cccc2)cc1OC`, 4.18%. Consider `Cc1cc(N)n(-c2ccc(C(=O)O)cc2)n1.Cl`, for which the “hERG current change (%, negative = inhibition) at 1uM” value stood at 5.84%. For `Cc1cc(NS(=O)(=O)c2ccc(C3CCCCC3)cc2)no1` the value was 16.5%; for `COC(=O)C(CC(=O)c1cccc(OC)c1)c1ccc(F)cc1` (centres unmarked), 14.8%. To `Br.N=c1n(CC(=O)O)c2ccccc2n1Cc1ccccc1Cl` belongs 7.86%; to `COCCNC(=S)Nc1cc(OC)c(NC(=O)c2ccco2)cc1OC`, 4.64%; to `Cc1c(/C=N/NC(=O)c2cccnc2)c2ccccc2n1Cc1ccccc1`, 13%.

As for `CC1=NN(C(=O)c2ccc(Cn3cc(Br)c([N+](=O)[O-])n3)o2)C(O)(C(F)(F)F)C1` (centres unmarked), the “hERG current change (%, negative = inhibition) at 1uM” value came to 6.39%.

As for `Cc1cc(C)nc(SCc2nnc(SCC(=O)Nc3nc(-c4ccccc4)cs3)n2-c2ccccc2)n1`, the “hERG current change (%, negative = inhibition) at 1uM” value came out at 5.19%. For the compound `O=C(NCc1ccco1)c1cnn2c(C(F)(F)F)cc(-c3ccccc3)nc12`, the “hERG current change (%, negative = inhibition) at 1uM” value was 8.62%. Take `Cc1ccc(C2=CC(c3ccc(N(C)C)cc3)n3nnnc3N2)cc1` (centres unmarked): the “hERG current change (%, negative = inhibition) at 1uM” value came out at 11.7%.

For `C#C[C@]1(O)CC[C@H]2[C@@H]3CCc4cc(OC)ccc4[C@H]3CC[C@@]21C`, the “hERG current change (%, negative = inhibition) at 1uM” value turned out to be 16.8%. For `CCOc1ccc(/C=C2/C(=N)N3OC(C)=CC3=NC2=O)cc1OC` the value was 9.54%; for `S=C(NCCc1ccccn1)Nc1ccc(Cl)c(Cl)c1`, 14%; for `O=C(COc1ccc(Cl)cc1)N1CCN(C/C=C/c2ccccc2)CC1`, -36.5%. For `CC(=O)OCc1c(C)cc(C)c(/C=C(/C#N)C(N)=O)c1C` the value was 6.27%.

For `O=C(CN1CCN(Cc2ccc(Cl)cc2)C1=O)N1CCC2(CC1)OCCO2`, the “hERG current change (%, negative = inhibition) at 1uM” value is -0.829%. For `CCC(CC)c1nnc(NC(=O)CCNC(=O)c2ccccc2Cl)s1` the value was -0.0596%; for `CN(C)C(=O)COc1ccc(S(=O)(=O)c2ccc(OCC(=O)N(C)C)cc2)cc1`, 11.1%. Consider `COc1ccc(CNc2ncnc3c2[nH]c2cc(OC)c(OC)cc23)cc1`, for which the “hERG current change (%, negative = inhibition) at 1uM” value stood at 14.9%.

For the compound `CCCNC(=O)OC[C@H]1O[C@H](CCO/N=C/c2ccc(C(=O)N3[C@H](c4ccc(C)cc4)[C@@H](C)CC[C@H]3C(=O)OC)cc2)C=C[C@@H]1Oc1ccc(OC)cc1`, the “hERG current change (%, negative = inhibition) at 1uM” value worked out at 7.58%. For `CN1CCN(C(=O)CC23CC4CC(CC(C4)C2)C3)CC1` the value was 5.9%; for `COc1ccc(NC(=O)Cn2nnc(C(=O)NCc3ccccc3)c2N)c(OC)c1`, 8.73%. For `COCCn1cc(C(=O)N2CCCC(C)C2)c2c3ccccc3n(C)c2c1=O` (centres unmarked) the value was 7.72%. To `Cc1cc(OC(=O)c2cccc(C(F)(F)F)c2)c([N+](=O)[O-])c(=O)[nH]1` belongs 13.6%. As to `Cc1ccc(C)c(S(=O)(=O)NCCOc2nc(NC(C)C)nc(NC(C)C)n2)c1`, the “hERG current change (%, negative = inhibition) at 1uM” value was -1.35%. To `COc1cc(OC)cc(C(=O)O/N=C(\N)c2ccncc2)c1` belongs 5.41%. To `O=C(c1ccc(S(=O)(=O)c2ccc(F)cc2)c([N+](=O)[O-])c1)N1CCCCCC1` belongs 3.83%; to `CC1=C(C(=O)Nc2ccccc2C(=O)NC2CCCCC2)SCCO1`, 7.83%. For `CCc1nc(SCc2cc(Cl)ccc2OC)n[nH]1` the value was 18.4%; for `CCOc1ccc(C(C)=O)cc1CN1C(=O)NC2(CCCCCC2)C1=O`, 13.5%; for `CCOC(=O)c1cnc(SCC(=O)N2CCOCC2)nc1N`, 12.3%. Turning to `CCN1C(=O)C(O)(CC(=O)c2ccc3c(c2)OCCO3)c2ccccc21` (centres unmarked), the “hERG current change (%, negative = inhibition) at 1uM” value is listed as 5.48%. For `Cc1ccc(-n2c(-c3ccc(Cl)cc3)c[n+]3c2CCC3)cc1.[Br-]` the value was -17.3%; for `Cn1c2c(c(=O)n(C)c1=O)C(c1ccccc1Cl)CC(=O)N2` (centres unmarked), 12%. To `CCn1c(=O)n(CCc2ccccc2)c(=O)c2c3c(sc21)CCCC3` belongs 3.23%; to `Cc1ccc2c(c1)cc(C(=O)N1CCN(c3ccccn3)CC1)n2C`, 12%. On to `C/C(CC(=O)Nc1ccccc1Cl)=N\NC(=O)C(=O)NCCO`, for which the “hERG current change (%, negative = inhibition) at 1uM” value is given as -0.701%. To `CCOC(=O)c1c(NC(=O)C2CC(Cl)=CCC2C(=O)O)sc2c1CCCCC2` (centres unmarked) belongs 9.14%. Turning to `CCCCN1C(=O)CCC(C(=O)O)C1c1ccccc1` (centres unmarked), the “hERG current change (%, negative = inhibition) at 1uM” value is listed as -2.27%. In the case of `COc1cc(CN2CCCC(C(=O)c3ccc4c5c(cccc35)CC4)C2)cc(OC)c1O` (centres unmarked), the “hERG current change (%, negative = inhibition) at 1uM” value amounted to 15.6%.

Consider `O=C(Cc1ccc(Br)cc1)OCC(=O)c1ccc2c(c1)OCCO2`, for which the “hERG current change (%, negative = inhibition) at 1uM” value is 10.1%. To `COc1ccc(C(=O)N2CCC(C(=O)NC3CC3)CC2)cc1` belongs 13.6%; to `O=C(CSCc1ccccc1)NCc1ccc2c(c1)OCO2`, 0.344%; to `CC1CN(S(=O)(=O)c2cc(C(=O)N(CCc3ccccc3)Cc3ccccc3)ccc2Cl)CC(C)O1` (centres unmarked), 13.3%.

Regarding `CN(C(=O)COC(=O)c1cc(S(=O)(=O)N2CCOCC2)ccc1F)C1CCS(=O)(=O)C1` (centres unmarked), the “hERG current change (%, negative = inhibition) at 1uM” value is 14.2%. For `O=S(=O)(Nc1ccccc1)c1ccc(-c2cnc(C3CC3)o2)cc1` the value was 9.09%; for `O=C(O)C/C(=C\c1cccc(NC(=O)c2ccccc2Cl)c1)c1nc2ccccc2s1`, 4.35%; for `COCCSc1nnc(NC(=O)C2CCN(C(=O)c3ccco3)CC2)s1`, 18.5%. For `O=C1NC(NS(=O)(=O)c2ccc(Cl)cc2)(C(F)(F)F)C(=O)N1c1ccccc1` (centres unmarked) the value was 12.6%; for `COc1ccc(-n2c(O)c(/C=N/Nc3nc(C)cc(C)n3)c3ccccc3c2=O)cc1OC`, 8.03%; for `Fc1ccc(CSc2nnc3ccc(-c4ccncc4)nn23)cc1`, -61.2%. As to `O=C(NCCCn1ccnc1)c1ccc(Cl)c(S(=O)(=O)N2CCOCC2)c1`, the “hERG current change (%, negative = inhibition) at 1uM” value was 6.49%. For `Cc1ncc([N+](=O)[O-])n1S(=O)(=O)c1cc(Cl)ccc1Cl`, the “hERG current change (%, negative = inhibition) at 1uM” value came to 13.3%. For `CS(=O)(=O)Oc1ccc2c(c1)O/C(=C\c1cccc([N+](=O)[O-])c1)C2=O` the value was 7.82%. To `Cc1ccc(S(=O)(=O)Nc2ccccn2)cc1[N+](=O)[O-]` belongs 14.6%.
